From article doi:10.1101/2023.12.06.570398 (bioRxiv, 2023)

Molecular target: T1, human NRP1 (residues 22-644) (human, UniProt O14786 22-644)
T1 sequence (looked up): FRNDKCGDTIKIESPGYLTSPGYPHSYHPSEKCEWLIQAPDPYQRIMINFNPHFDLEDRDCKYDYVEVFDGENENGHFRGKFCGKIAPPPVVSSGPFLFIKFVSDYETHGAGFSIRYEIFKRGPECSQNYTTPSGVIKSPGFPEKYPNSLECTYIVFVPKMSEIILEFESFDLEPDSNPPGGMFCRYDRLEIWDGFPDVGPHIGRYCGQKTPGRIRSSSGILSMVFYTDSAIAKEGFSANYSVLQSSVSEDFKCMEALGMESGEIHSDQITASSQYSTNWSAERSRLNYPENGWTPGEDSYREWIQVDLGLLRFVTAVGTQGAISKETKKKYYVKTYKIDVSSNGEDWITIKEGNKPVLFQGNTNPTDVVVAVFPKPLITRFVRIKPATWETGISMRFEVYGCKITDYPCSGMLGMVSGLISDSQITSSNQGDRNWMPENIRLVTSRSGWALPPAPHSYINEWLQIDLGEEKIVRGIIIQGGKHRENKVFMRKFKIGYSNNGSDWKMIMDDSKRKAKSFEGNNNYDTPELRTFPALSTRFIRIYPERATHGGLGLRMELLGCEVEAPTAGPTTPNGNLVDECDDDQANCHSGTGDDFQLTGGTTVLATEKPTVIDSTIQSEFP
Assay: MST

B1: fluorescent human NGF (ligand)
chain: not shown
modifications: fluorescent label (dye and site not stated)
With B1 the Kd was 35.5 nM.
